# Assay results as given in the supplement of paper PMC3334620.
# Over roughly 33,000 sequences, “E-score (-0.5 to 0.5)” has its median near -0.012; the highest 2% begin near 0.29. This is one part of the list.
# Target: T1, Ybr033w (UniProt P38073)
# T1 sequence: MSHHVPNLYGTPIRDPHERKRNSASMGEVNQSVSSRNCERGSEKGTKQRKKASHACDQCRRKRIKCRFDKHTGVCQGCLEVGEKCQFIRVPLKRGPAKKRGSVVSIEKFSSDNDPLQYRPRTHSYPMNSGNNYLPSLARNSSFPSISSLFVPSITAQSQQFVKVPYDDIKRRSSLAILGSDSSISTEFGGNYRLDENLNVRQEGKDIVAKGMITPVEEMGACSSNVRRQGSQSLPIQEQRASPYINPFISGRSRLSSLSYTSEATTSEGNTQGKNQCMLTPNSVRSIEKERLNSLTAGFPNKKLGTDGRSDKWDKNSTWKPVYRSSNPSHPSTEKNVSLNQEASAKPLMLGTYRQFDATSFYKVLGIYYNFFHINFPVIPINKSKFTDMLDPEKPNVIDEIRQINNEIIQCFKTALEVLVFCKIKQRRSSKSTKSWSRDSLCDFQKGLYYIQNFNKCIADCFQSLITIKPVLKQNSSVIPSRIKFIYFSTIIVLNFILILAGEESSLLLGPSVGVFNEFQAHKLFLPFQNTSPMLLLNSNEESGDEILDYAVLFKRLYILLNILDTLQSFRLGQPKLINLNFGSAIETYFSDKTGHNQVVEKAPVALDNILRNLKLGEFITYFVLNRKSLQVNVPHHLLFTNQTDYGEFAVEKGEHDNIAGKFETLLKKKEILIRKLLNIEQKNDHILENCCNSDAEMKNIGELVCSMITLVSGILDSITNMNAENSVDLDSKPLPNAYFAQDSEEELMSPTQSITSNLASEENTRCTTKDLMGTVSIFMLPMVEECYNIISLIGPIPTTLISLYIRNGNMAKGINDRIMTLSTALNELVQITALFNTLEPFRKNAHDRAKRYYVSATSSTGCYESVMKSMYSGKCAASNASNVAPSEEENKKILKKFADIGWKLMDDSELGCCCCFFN
# Test: PBM E-score (8-mer binding enrichment) (E-score (-0.5 to 0.5)); higher = stronger / more preferred TF binding; most listed sequences are background and not binding sites
# Details: protein concentration: 200 nM; construct: GST-full length
# Outline: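 Universal all-10-mer Agilent arrays, double-stranded by primer extension on fresh or once-stripped slides, were probed with about 100-200 nM GST-tagged yeast transcription factors made by PURExpress. Fluorescent anti-GST detected bound protein, and masliner normalised the scans. E-scores from the Universal PBM Analysis Suite were given to each ungapped eight-base word pooled with its reverse complement.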
row,Sequence,PBM E-score
1,AGATTCAC,-0.0233
2,AACCAGCC,-0.0273
3,ACGTGTTC,-0.114
4,TACGCTAA,0.0698
5,TATATGGA,0.0384
6,CAAAAAAA,0.293
7,CATCAGCG,-0.188
8,AGTTCCAC,0.12
9,ACCTAGAT,-0.147
10,CGTCCGTA,-0.142
11,CAACAATC,0.256
12,CTTGTCCA,0.0362
13,CTTATTTA,0.106
14,TAGGCCGA,-0.0928
15,GCACCGGA,-0.12
16,CCAATACC,-0.0674
17,AAAAGGTC,-0.122
18,CAACATGC,0.101
19,CTGTTTTA,0.206
20,CGAGTGGA,0.0174
21,CACGTACG,-0.121
22,AGACGGTC,-0.222
23,TGAGAGAA,0.0793
24,ATAGCGAA,0.153
25,GTCACAGA,-0.043

row,Sequence,PBM E-score
1,CAACTCGC,0.0613
2,CCCTCTAA,-0.184
3,CAGGGTCG,-0.201
4,AGGTTCCG,0.00362
5,AAAGATCC,0.3
6,CTCTTTTA,-0.0348
7,AGCCATAC,-0.196
8,TGCACAAA,0.0788
9,CCCGGATC,0.0588
10,CACTGCAC,-0.0225
11,AGTTCTTG,0.203
12,CTTTTTAC,0.126
13,AAGATCGT,-0.0522
14,CGGAATAA,0.468
15,ATGGTAAA,0.187
16,CACACAGG,-0.125
17,AAATCGTA,0.269
18,GTGTGTGA,0.0756
19,GAATGGTA,0.0656
20,ATGGCAAC,-0.0208
21,GTTCTTCA,-0.14
22,CGCTGTCA,-0.264
23,ACCAGTTA,0.0115
24,CCGTTTAA,0.169
25,AGTGTCTC,-0.116

row,Sequence,PBM E-score
1,AATCCTCG,0.102
2,ACAGACTC,-0.0761
3,GATGTTGC,0.0334
4,CACCCACG,-0.0887
5,ATATGGCA,0.0327
6,GCTGCCAA,-0.13
7,TTCGACAA,0.0957
8,ACTTCCCC,-0.326
9,ACGTGCAT,-0.12
10,CTAGCACA,-0.126
11,CGAGTAAC,0.124
12,CCCCAACG,-0.112
13,GTGTATCA,0.178
14,GCTGCGGA,0.0313
15,GGACCCTA,-0.235
16,ACAACAAG,0.203
17,CAGCACAC,-0.198
18,AAGTTAGG,0.0258
19,ACTCCATC,0.21
20,AGTGTCAG,-0.0511
21,CTTAGGGA,-0.168
22,ACTCGTCA,0.0162
23,GGAGGGCA,-0.155
24,CGGTCTAG,-0.0446
25,CAATTTCA,0.0349

row,Sequence,PBM E-score
1,AAAATACG,0.171
2,GACTCTAC,-0.261
3,ATTAACCG,0.295
4,ATGGATGC,-0.111
5,CAGTACTG,-0.142
6,TACTGGAA,0.128
7,ACTAGGGC,-0.13
8,AAGGGGGG,-0.473
9,ATCCAAAG,0.0799
10,CGCCGCCG,-0.141
11,CACAGCGC,-0.106
12,GTCCTAAC,-0.0118
13,CAATCGTA,0.135
14,AGAGGTCA,-0.127
15,CACGGGGC,-0.31
16,CGCCGTGA,-0.0954
17,CACGCGTC,-0.0213
18,GGGTAACA,-0.173
19,ATATAATA,0.34
20,CGCCATGC,-0.152
21,ATCACTTC,0.111
22,AGACCCTC,-0.272
23,CCCTTAAC,-0.27
24,GGGGGACA,-0.223
25,CGCCTTAA,0.0619

row,Sequence,PBM E-score
1,CGTGGAAG,0.0416
2,GGACCTAA,-0.189
3,CATTCACG,-0.00561
4,GGTGTGGA,0.0582
5,CAGTAACC,-0.00269
6,ATTCCCCA,-0.0626
7,AACTTTGT,0.181
8,CTTCTGGC,-0.0573
9,GGTTATCA,-0.0303
10,CACGGGCA,-0.201
11,CCTGGACA,-0.144
12,GTGGTGAA,0.0056
13,TGCAACCA,-0.12
14,CTGCACCA,-0.21
15,CCAGGCAA,-0.0276
16,CCTAGTAC,-0.0217
17,AGCGAGAC,-0.151
18,CTTTTGTA,0.249
19,ACGACGGG,-0.19
20,CTCATGCC,-0.203
21,TGGCTCAA,0.0193
22,AATCTGAT,0.16
23,CCTCTTAC,-0.144
24,CGTTCAAA,-0.0435
25,AGTTCCTG,-0.066

row,Sequence,PBM E-score
1,CATTGCGA,0.0264
2,GGATTCCC,-0.136
3,CATTGAGA,0.186
4,GGGTTAAC,0.0754
5,CCAGGTCA,-0.175
6,CAGCGTCA,-0.22
7,AGCAAACA,0.00569
8,GCTCTGCC,-0.232
9,CCCTAGCA,-0.224
10,GGTTTGCA,-0.00369
11,AGCTTGGG,-0.251
12,CTATAGAC,-0.105
13,GTGTAGAA,0.0103
14,CGACGAAG,0.0307
15,ACTACCTA,0.0452
16,GAAATGAA,0.237
17,CAGAATGA,0.0308
18,AACCATTG,0.0228
19,ATCCTTGC,0.013
20,AATTACCC,0.0843
21,CCAAAGCA,0.0707
22,CCAGAACC,-0.0501
23,GCCCCGCA,-0.298
24,CGGCTTTA,0.0331
25,ACAGCACA,0.144

row,Sequence,PBM E-score
1,ACCTGTCT,-0.182
2,AACTAACG,0.176
3,ATCTGTAA,-0.00959
4,ACTTAGCT,-0.0833
5,CAATTGAG,0.0534
6,CTGCTTGC,-0.0147
7,GCCTAGGA,-0.121
8,ACACCCCG,-0.281
9,ATGGGCAG,-0.114
10,CCAAACGA,-0.0332
11,CCCGAAGA,-0.0734
12,GCGAGAAC,-0.0441
13,TACGGCCA,-0.0955
14,AGTCGACC,-0.0708
15,GCATCCGA,-0.118
16,AACAGTAG,0.0504
17,CGCCCCTA,-0.0706
18,GTAACACA,0.0946
19,CGGACTGA,-0.138
20,CGTACTGA,0.122
21,CAAGAGAA,0.0456
22,ACGACGTC,-0.204
